Assay results from PubChem BioAssay AID651791 (National Center for Advancing Translational Sciences (NCATS), 2012).
Inconclusive means that the source gave no clear call. Such entries were picked first, then a sample of the others. No potency is given beside an inconclusive call; the fits are too rough. The source made the active and inactive calls. Calls follow the shape of the dose curve; as a rule, active = well fitted inhibition curve with a large enough effect; inconclusive = small, poorly fitted or top-dose-only effect; inactive = no such curve, though single readings can be large or run the other way.

Experiment: InCell qHTS Assay for Inhibitors of the mTORC1 Signaling Pathway in MEF (Tsc2-/-, p53-/-) Cells: Hit Validation; also: nearly all actives have a fitted effect of over 75% in size
Conditions: phospho-rpS6 immunofluorescence, 24 h
Source text: The mammalian target of rapamycin (mTOR) is an intracellular serine/threonine kinase Aberrant regulation of mTOR signaling plays a causative role in a number of human diseases, including cancer, benign tumors such as lymphangioleiomyomatosis (LAM) and Tuberous Sclerosis Complex (TSC), and metabolic diseases such as diabetes and obesity. This project aims to identify inhibitors of ribosomal protein S6 (rpS6) phosphorylation. The phosphorylation of rpS6 is a key event downstream of mTOR activation. The assay uses a phospho-specific antibody of phospho-rpS6 to detect inhibitors of mTOR activation. Mutations in the Tsc1 and Tsc2 genes are the underlying genetic lesions responsible for TSC, causing constitutive activation of the mTORC1 pathway and leading to profound effects on cell metabolism. Aberrant metabolism in cancer has recently received significant attention as a target to develop therapeutic agents in the treatment of cancer.1 As Tsc2-/- cells have lost the ability to respond to energy and growth factor deprivation, these cells are unable to properly down regulate cellular biosynthetic processes in response to metabolic stress, and are thus extremely sensitive to glucose deprivation-induced death.2 A central goal of this project is to explore the unique cell survival and metabolic properties of cells with Tsc1 or Tsc2 by screening for compounds that selectively target the Tsc2-/- MEFs by screening both Tsc2-/- and WT MEF cell lines. We hope to better understand these aspects of TSC physiology in order to exploit them for therapeutic benefit. NIH Molecular Libraries Probe Production Centers Network [MLPCN] NIH Chemical Genomics Center [NCGC] MLPCN Grant: NS059428 Assay Submitter (PI): Blenis, John; Harvard University
For quantitative high throughput analysis of mTORC1 signaling, we developed a cell-based assay for immuno-fluorescence based detection of rpS6 phosphorylation on the Acumen Explorer that will be used a platform for the primary small molecule screen. Mouse embryonic fibroblasts (MEFs) are cultured in 1536-well plates using DMEM + 10% FBS. Twenty-four hrs after plating, test compounds (solubilized in DMSO) are delivered and incubated with the cells for 24 hrs at 37 degree Celsius. Following the incubation, media with compound is aspirated and the cells are fixed in 4% paraformaldehyde (PFA) containing PBS + 0.2% TX-100. Next, PFA is aspirated, cells are washed two times with PBS plus 0.2% TX-100 and the cells are blocked for 1 hr at room temperature (blocking buffer: LiCOR Blocking Buffer plus 0.2% TX-100). This is followed by aspiration and staining with Alexa-488 conjugated-phospho-rpS6 Ser235/236 antibody for 2 hours at room temperature (Cell Signaling Technology # 4803, 1:50 dilution in blocking buffer). Cells are washed two times with PBS plus 0.2% TX-100, and stained with 10 uM propidium iodide (PI) for 20-25 minutes for cell number measurement (1:500 dilution of Hoescht staining is also added for IN Cell imaging). The plates are scanned on the Acumen Explorer laser scanning instrument (TTP Labtech) using the 488nm laser for simultaneous excitation of the Alexa-488 and PI. The fluorescence emission from the Alexa-488 conjugated rpS6 phospho-235/236 antibody staining is selected using a […] band pass filter. Fluorescence emission from the PI stain is selected using a 575-640 nm band pass filter. The normalized phospho-S6 staining is calculated as the ratio of the integrated Alexa 488 intensity divided by the integrated PI intensity for the single concentration rapamycin control (7.5 nM) and DMSO columns. […] Inhibition of the pathway is defined based on the normalized phospho-S6 intensity in rapamycin treated cells. […]
Potency is read from the fitted curve at half-maximal effect; tags tell the direction and shape of the fitted curve.

## COc1cccc(C2=CC(c3cc(Br)ccc3F)n3nnnc3N2)c1 (centres undefined)
  Potency: inconclusive [inhibitor, single point]

## Cc1ccc(NC(=O)CSc2nc(-c3ccco3)cc(C(F)(F)F)n2)c(C)c1
  Potency: inconclusive [inhibitor, single point]

## Cc1oc(-c2ccc(Cl)cc2)nc1CN1CCC(C(=O)NCCCN2CCN(c3cccc(Cl)c3)CC2)CC1
  Potency: inconclusive [inhibitor, single point]

## CCOc1ccc(NC(=O)CSc2oc(-c3ccccc3)nc2S(=O)(=O)c2ccc(Cl)cc2)cc1
  Potency: active: 3.69 µM

## COc1ccc(CNC(=O)Cn2c(SCC(=O)Nc3ccc(C)c(C)c3)nc3ccccc32)cc1
  Potency: inconclusive [inhibitor, single point]

## CCCCOc1ccc(CN2C(=O)C(=O)c3cc(C)ccc32)cc1OC
  Potency: inconclusive [inhibitor, single point]

## Cc1ccc2oc(-c3ccc(Cl)cc3)c(O)c(=O)c2c1
  Potency: inconclusive [inhibitor, single point]

## O=C(c1ccccc1)c1ccc2nc(N3CCN(c4ccc(F)cc4)CC3)c3nncn3c2c1
  Potency: inconclusive [inhibitor, single point]

## COc1cccc(-c2cc(C(=O)Nc3cnn(Cc4ccc(Cl)cc4Cl)c3)no2)c1
  Potency: inconclusive [inhibitor, single point]
